Experimental data as given in PubChem BioAssay AID624417 (National Center for Advancing Translational Sciences (NCATS), 2012).
In all, about 410,000 compounds went through this assay and about 6,400 (1.6%) were called active. Inconclusive results, whose numbers are uncertain, are shown with a selection of clear calls. The call rests on the fitted dose curve; in most records, active means well fitted inhibition curve with a large enough effect; inconclusive means small, poorly fitted or top-dose-only effect; inactive means no such curve, though single readings can be large or run the other way. A potency beside an inconclusive call is a rough fit, not a confirmed value.

biological target: Glucagon-like peptide 1 receptor (Homo sapiens) (UniProt P43220); test: qHTS of GLP-1 Receptor Inverse Agonists (Inhibition Mode); conditions: HEK293 GLP-1R CRE-luciferase, luminescence, 24 h, GLP-1R form is constitutively active; activity change, negative = inhibition: at 38.3 µM (top of the series) unless noted; further: nearly all actives have a fitted effect of over 55% in size
UniProt P43220, sequence (P43220 whole entry, looked up): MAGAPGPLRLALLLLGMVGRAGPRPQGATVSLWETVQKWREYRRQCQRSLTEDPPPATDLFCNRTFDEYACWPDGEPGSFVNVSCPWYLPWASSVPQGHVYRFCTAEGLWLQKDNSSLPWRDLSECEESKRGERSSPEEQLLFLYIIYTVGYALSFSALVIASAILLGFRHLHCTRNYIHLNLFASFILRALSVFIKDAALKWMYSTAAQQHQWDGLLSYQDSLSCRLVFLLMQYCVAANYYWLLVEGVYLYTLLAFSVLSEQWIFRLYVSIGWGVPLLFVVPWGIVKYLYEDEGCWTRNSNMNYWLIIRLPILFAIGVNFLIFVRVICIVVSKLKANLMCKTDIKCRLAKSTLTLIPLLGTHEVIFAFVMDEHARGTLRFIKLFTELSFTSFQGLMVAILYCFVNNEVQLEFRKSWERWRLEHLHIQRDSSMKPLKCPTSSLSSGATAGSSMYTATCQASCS
In short: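 Using stably transfected HEK293 (constitutively active GLP-1R, cAMP-luciferase reporter), compounds were incubated 24 hr and luciferase measured by luminescence.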
On the % scale 0 is the no-effect control and ±100 the full control effect; potency means the concentration at half of the fitted maximal effect; tags describe the fitted curve by direction and shape.

Activity change, negative = inhibition, inactive:
CCCCc1ccc(NC(=O)CC(C)=O)cc1 -1.89%, Cc1ccc(-n2nc3c(N4CCC(C(=O)NCCc5ccccc5)CC4)nnc(C)c3c2C)cc1 4.59%, CN1CCN(C2CCCCC2NS(=O)(=O)c2ccccc2)CC1 (stereo unspecified) -5.86%, COc1ccc(-n2c(=S)[nH]c3cc(C(=O)Nc4cc(C(N)=O)ccc4OC)ccc3c2=O)c(OC)c1 -13.1%, CC1(C)CC(=O)C2=C(C1)c1c(ccc3ccccc13)NC2c1ccco1 (stereo unspecified) 0%, O=[N+]([O-])c1cc(Cl)ccc1-c1nc(-c2ccncc2)no1 11.1%, Cc1coc2cc3oc(=O)c(CCC(=O)N4CCCCC4)c(C)c3cc12 3.44%, CN(CCOc1ccccc1)S(=O)(=O)c1ccccc1C#N -13.7%, S=C(Nc1ccc(Br)cc1Cl)NN1CCOCC1 -4.43%

Potency, active:
COc1cccc(/C=N/NC(=O)c2ccoc2C)c1O 1.26 µM, CCOC(=O)c1nnn(-c2nonc2N)c1COc1cc(C)c(Cl)c(C)c1 8.91 µM, CCN(CC)CCN(C(=O)c1ccc2c(c1)CCCC2)c1nc2c(OC)cccc2s1 11.2 µM

Potency, inconclusive:
O=C(CC1C(=O)NCCN1C(=O)Nc1ccc(F)cc1)Nc1cc(Cl)ccc1Cl (stereo unspecified) 28.2 µM [inhibitor, single point], COc1ccc(F)cc1C1=CC(=O)C[C@H](c2ccc3c(c2)OCO3)C1 11.2 µM [inhibitor, partial curve, poor fit], Cc1ccc2nc(C)c3c(c2c1)N(c1ccc(F)cc1)CC3 7.08 µM [inhibitor, partial curve, poor fit], Fc1ccc(NC(=S)NC2CCN(Cc3ccccc3)CC2)cc1 17.8 µM [inhibitor, partial curve, poor fit], COc1ccccc1CNc1cc(C)ccn1 11.2 µM [inhibitor, partial curve, poor fit], CCOC(=O)c1ccccc1NC(=O)COC(=O)CC1CCCCC1 22.4 µM [inhibitor, single point], S=C1SCN(CC2CC2)CN1CC1CC1 3.98 µM [inhibitor, full curve, poor fit], O=C(Nc1ccc(S(=O)(=O)N2CCCC2)cc1)c1cc(F)c(F)cc1Cl 10 µM [inhibitor, partial curve, poor fit], COc1cccc(-c2onc3ccc(C4(C)OCCO4)cc23)c1 28.2 µM [inhibitor, single point], C=CC[n+]1c(/C=C2\C=Cc3cc(C)ccc3N2CC)ccc2ccccc21 2 µM [inhibitor, full curve, poor fit], CC(C)=CCC[C@H](C)C[C@@H]1CC2=C(C(=O)OC(C)(C)O2)[C@H](c2ccc(Cl)cc2)O1 6.31 µM [inhibitor, partial curve], Cc1ccc(-c2cc(N)n(Cc3cccc(Cl)c3)n2)cc1 10 µM [inhibitor, partial curve, poor fit], Cc1ccccc1-c1ccnc2c(-c3ccc(F)cc3)c(C)nn12 20 µM [inhibitor, single point], C=C1[C@@H](O)[C@@H]2O[C@]3(CC[C@H](/C=C/[C@@H](C)[C@@H]4CC(C)=CC5(O[C@H](C[C@@](C)(O)C(=O)OC)CC[C@H]5O)O4)O3)CC[C@H]2O[C@@H]1[C@@H](O)C[C@H](C)[C@H]1OC2(CCCCO2)CC[C@H]1C (stereo partly specified) 28.2 µM [inhibitor, single point], COC(=O)CNC(c1ccccc1)c1cc(Br)ccc1NC(=O)c1ccc(Cl)cc1 (stereo unspecified) 11.2 µM [inhibitor, partial curve, poor fit], CCN1CCc2nc(NC(=O)c3ccc(S(=O)(=O)N(C)C)cc3)sc2C1 20 µM [inhibitor, partial curve, poor fit], CCOC(=O)c1ccccc1NC(=O)c1c(-c2ccccc2)noc1C 8.91 µM [inhibitor, partial curve, poor fit], c1coc(CNc2nc3nonc3nc2NCc2ccco2)c1 8.91 µM [inhibitor, partial curve], Cc1ccnc(NC(=O)C2CCCN(c3ncnc4c3nc3n4CCCCC3)C2)c1 (stereo unspecified) 2.24 µM [inhibitor, full curve, poor fit], COc1cccc(CN(C(=O)c2oc3ccc(Br)cc3c2C)C2CCS(=O)(=O)C2)c1 (stereo unspecified) 22.4 µM [inhibitor, single point], CCN(CC)C(=O)C1CCN(Cc2cccc(OCc3ccccc3)c2)CC1 28.2 µM [inhibitor, single point], CCc1ccccc1NC(=O)c1ccc(Cn2cc([N+](=O)[O-])cn2)cc1 14.1 µM [inhibitor, partial curve], CCN(CC)Cc1ccc(NC(=O)c2sc3cc(Cl)ccc3c2Cl)cc1 6.31 µM [inhibitor, partial curve, poor fit], CCOC(=O)C1CCCN(S(=O)(=O)c2cccc3nsnc23)C1 (stereo unspecified) 31.6 µM [inhibitor, single point], COc1ccc(OC)c(S(=O)(=O)N2CCc3ccccc3C2)c1 8.91 µM [inhibitor, partial curve, poor fit], O=C(NCc1ccc2c(c1)OCO2)c1cc([N+](=O)[O-])ccc1N1CCOCC1 1.58 µM [inhibitor, full curve, poor fit], COc1cccc(C2CC(C(F)(F)F)n3ncc(C(=O)Nc4c(C)n(C)n(-c5ccccc5)c4=O)c3N2)c1 (stereo unspecified) 1 µM [inhibitor, partial curve, poor fit], COC(=O)/C(=C\Nc1ccccc1)NC(=O)c1ccc(Cl)cc1Cl 10 µM [inhibitor, single point], Cc1ccc(C)c(C(=O)C(C)OC(=O)c2cccn2C)c1 (stereo unspecified) 10 µM [inhibitor, partial curve, poor fit]
